# Test results: PubChem BioAssay AID995 (National Center for Advancing Translational Sciences (NCATS), 2007)
# Screen size: about 72,000 compounds; about 710 (0.99%) were called active. Inconclusive results, whose numbers are uncertain, are shown with a selection of clear calls. The call rests on the fitted dose curve; in most records, active means well fitted inhibition curve with a large enough effect; inconclusive means small, poorly fitted or top-dose-only effect; inactive means no such curve, though single readings can be large or run the other way. No potency is given beside an inconclusive call; the fits are too rough.
# Assay: qHTS Assay for Inhibitors of the ERK Signaling Pathway using a Homogeneous Screening Assay; further: nearly all actives have a fitted effect of over 55% in size
# Conditions: HEK293-V1b, vasopressin-stimulated pERK AlphaScreen; activity, negative = inhibition: at 57.5 µM (top of the series) unless noted
# Method in brief: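 HEK293 cells stably expressing V1b receptor, seeded overnight in 1% FBS, were treated with compounds for 30 min at 37C, then stimulated 5 min with 25 nM vasopressin; phospho-ERK read by AlphaScreen SureFire after lysis.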
# On the % scale 0 is the no-effect control and ±100 the full control effect; potency means the concentration at half of the fitted maximal effect; tags describe the fitted curve by direction and shape.
Compound,Potency,"activity, negative = inhibition"
Cc1c(C(=O)O)c(O)cc2c1C(=O)c1c(O)c([C@H]3O[C@H](CO)[C@@H](O)[C@H](O)[C@H]3O)c(O)c(O)c1C2=O,"inconclusive [inhibitor, full curve]",
Cc1cccc(OCC(=O)Nc2cccc(O)c2)c1,"inconclusive [inhibitor, partial curve]",
CCCCCCCCC,,inactive: -3.43%
O=C(c1csnn1)N1CCC[C@@]2(CCN(c3ccncc3)C2)C1,,inactive: -13.4%
O=C(O)/C=C\C(=O)Nc1cccc2c1-c1ccccc1C2=O,,inactive: -24.7% [at 11.5 µM]
N/C(=N/O)c1nc(N2CCCCC2)nc(N2CCCCC2)n1,"inconclusive [inhibitor, partial curve]",
C[C@H]1[C@H](C)CC[C@]2(C(=O)O)CC[C@]3(C)C(=CCC4[C@@]5(C)CC[C@H](O)C(C)(C)[C@@H]5CC[C@]43C)[C@H]12 (stereo not given in full),,inactive: 22.7%
COc1ccc(N/C(=N\c2nc(C)cc(C)n2)NC(C)=O)cc1OC,"inconclusive [inhibitor, full curve, poor fit]",
c1ccc(Nc2cc(-c3ccccc3)nc3ncnn23)cc1,"inconclusive [inhibitor, partial curve]",
COc1ncc2nc(CCc3ccccc3)c(=O)n(CCc3ccccc3)c2n1,,inactive: -3.72%
O=C(NC1CCCC1)c1ccc2nc(-c3ccco3)c(-c3ccco3)nc2c1,"inconclusive [inhibitor, full curve, poor fit]",
O=C(Nc1ccc2c(c1)OCO2)C1CCCN(c2nc3ccccc3s2)C1 (stereo not given),,inactive: 28.6%
CCn1c(=O)c2cc(C(=O)NCCN3CCOCC3)sc2c2ccccc21,"inconclusive [inhibitor, partial curve]",
COc1ccc(CC(NC(C)=O)C(=O)NC2CCN(c3nc(C)cc(C)c3C#N)CC2)c(OC)c1 (stereo not given),,inactive: -30.9%
CCOn1c(=O)c(-c2cc3ccccc3o2)[n+]([O-])c2ccccc21,"inconclusive [inhibitor, partial curve]",
O=C(c1ccccc1)c1ccc(N2CCOCC2)c(F)c1,"inconclusive [inhibitor, single point]",
COc1ccc(-n2c(=O)c(-c3cccc(C#N)c3)nc3cnc(N4CCNCC4)nc32)cc1,"inconclusive [inhibitor, single point]",
CC(C)c1ccc2c(c1)CC[C@H]1[C@](C)(CN)CCC[C@]21C,"inconclusive [inhibitor, single point]",
CC(C)=C(NC(=O)c1ccco1)C(=O)NCCc1nc2ccccc2[nH]1,"inconclusive [inhibitor, partial curve]",
CCOC(=O)N1CCC(NC(=O)Cn2nc(-c3ccccc3)ccc2=O)CC1,"inconclusive [inhibitor, partial curve]",
O=C(Nc1ccc2nc(-c3cccnc3)[nH]c2c1)c1ccco1,,inactive: -13.9%
COc1cccc(-c2cnc(NCc3cc(Cl)ccc3O)n2C)c1,"inconclusive [inhibitor, single point]",
NS(=O)(=O)c1cc(Cl)c(Cl)c(S(N)(=O)=O)c1,,inactive: 6.14% [at 25.7 µM]

Compound,Potency,"activity, negative = inhibition"
CCn1c2c(c3ccc(OC)cc31)CCCC2=O,"inconclusive [inhibitor, partial curve]",
O=C(COc1ccc(-n2cnnn2)cc1)N1CCN(c2ccc(F)cc2)CC1,"inconclusive [inhibitor, single point]",
N#Cc1nc(-c2ccc(OCc3ccccc3)cc2)oc1NCc1cccnc1,"inconclusive [inhibitor, single point]",
c1ccc2c(c1)[nH]c1c(N3CCCC3)ncnc12,"inconclusive [inhibitor, partial curve]",
C[C@H](Oc1ccc(Oc2cnc3ccc(Cl)cc3n2)cc1)C(=O)O,inactive,
O=C(c1ccco1)N1CCC[C@@]2(CCN(Cc3ccccc3)C2)C1,,inactive: -10.8%
Cc1nc(N2CCN(C(=O)c3ccco3)CC2)c2c3c(sc2n1)CCC3,"inconclusive [inhibitor, single point]",
COc1ccc(C(=O)COC(=O)CN2C(=O)NC(C)(C)C2=O)cc1OC,,inactive: -16.9%
Clc1ccccc1-c1nc(-c2ccncc2)no1,,inactive: -19.2% [at 11.5 µM]
CCN(CC)c1ccc(NC(=O)Cn2cc3c(n2)CCC(C)C3)c(C)c1 (stereo not given),"inconclusive [inhibitor, full curve]",
NC[C@@H](O)c1ccc(O)c(O)c1,"inconclusive [inhibitor, single point]",
CS(=O)(=O)N(CC(=O)Nc1ccc2c(c1)OCCO2)Cc1ccc(Cl)cc1,"inconclusive [inhibitor, single point]",
COc1ccc(CN(C2CCCC2)S(=O)(=O)c2ccc(-n3cnnn3)cc2)cc1OC,,inconclusive: -37.1% [inhibitor]
CN(C)c1ncc2ncc(=O)n(C3CC3)c2n1,,inactive: -20.2%
Cc1cc(OCC(=O)N(C)C)c2c(-c3ccccc3)cc(=O)oc2c1,"inconclusive [inhibitor, partial curve]",
CCn1c(SCC(=O)c2ccc(Cl)cc2)nnc1-c1ccoc1C,"inconclusive [inhibitor, partial curve]",
CC(=O)c1cccc(NC2c3ncccc3C(=O)N2Cc2ccco2)c1 (stereo not given),"inconclusive [inhibitor, full curve, poor fit]",
CCOC(=O)C1CCN(C(=O)Nc2ccc3nc(-c4ccco4)c(-c4ccco4)nc3c2)CC1,active: 25.1 µM,
Cc1cc(C(=O)CSc2nnc(-c3ccco3)o2)c(C)n1-c1ccc2c(c1)OCCO2,,inactive: 5.95%
O=C(c1ccc(-c2ccccc2)cc1)N1CCN(Cc2ccccn2)CC1,"inconclusive [inhibitor, partial curve, poor fit]",
Oc1cc2c(cc1O)CN(C(=S)NCCc1ccc(Cl)cc1)CCC2,"inconclusive [inhibitor, partial curve, poor fit]",
CCN(CC)c1ccc(-c2nn3c(-c4n[nH]c5c4CCC5)nnc3s2)cc1,"inconclusive [inhibitor, single point]",
